Here are results for one substance from patent US6699837.

The target of assay [1] is HGF receptor (c-met) on rat pheochromocytoma PC12 cells (rat) (UniProt P97523). Briefly: ^125I-HGF saturation binding on PC12 cells differentiated for 7 days with 50 ng/ml NGF, Scatchard analysis.
For assay [2] the target is unchanged. Kind of assay: ^125I-HGF saturation binding on undifferentiated PC12 cells, Scatchard analysis.

A word on the Kd: it is the equilibrium constant for the complex coming apart. A low value points to tighter binding.

As to “Human recombinant HGF (hepatocyte growth factor), radioiodinated (^125I-HGF) (a stretch of the chain, sequence not shown) (ligand; radioiodinated with ^125I by the chloramine-T method (labelled residues not stated); other documents disagree on this pair)”, in assay [1], the Kd was 0.027 nM and the binding sites (sites/cell) came to 15 sites/cell. Also, in assay [2], the B max (sites/cell) was 185 sites/cell and the Kd was found to be 0.04 nM.
